# Test results as given in paper PMC4336329 (PLoS ONE, 2015).
# The campaign covered roughly 310,000 compounds. About 14,000 (4.5%) showed an effect of 50% or more. Effects have a minus sign here. The list shows a part of the results.
# Target: human ether-à-go-go-related gene (hERG) potassium channel (human, UniProt Q12809)
# Test: primary screen, population patch clamp on CHO cells stably expressing hERG
# 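Also: peak tail current of the secondary pulse compared with the same well before compound.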
# human ether-à-go-go-related gene (hERG) potassium channel, sequence (Q12809 whole entry, looked up): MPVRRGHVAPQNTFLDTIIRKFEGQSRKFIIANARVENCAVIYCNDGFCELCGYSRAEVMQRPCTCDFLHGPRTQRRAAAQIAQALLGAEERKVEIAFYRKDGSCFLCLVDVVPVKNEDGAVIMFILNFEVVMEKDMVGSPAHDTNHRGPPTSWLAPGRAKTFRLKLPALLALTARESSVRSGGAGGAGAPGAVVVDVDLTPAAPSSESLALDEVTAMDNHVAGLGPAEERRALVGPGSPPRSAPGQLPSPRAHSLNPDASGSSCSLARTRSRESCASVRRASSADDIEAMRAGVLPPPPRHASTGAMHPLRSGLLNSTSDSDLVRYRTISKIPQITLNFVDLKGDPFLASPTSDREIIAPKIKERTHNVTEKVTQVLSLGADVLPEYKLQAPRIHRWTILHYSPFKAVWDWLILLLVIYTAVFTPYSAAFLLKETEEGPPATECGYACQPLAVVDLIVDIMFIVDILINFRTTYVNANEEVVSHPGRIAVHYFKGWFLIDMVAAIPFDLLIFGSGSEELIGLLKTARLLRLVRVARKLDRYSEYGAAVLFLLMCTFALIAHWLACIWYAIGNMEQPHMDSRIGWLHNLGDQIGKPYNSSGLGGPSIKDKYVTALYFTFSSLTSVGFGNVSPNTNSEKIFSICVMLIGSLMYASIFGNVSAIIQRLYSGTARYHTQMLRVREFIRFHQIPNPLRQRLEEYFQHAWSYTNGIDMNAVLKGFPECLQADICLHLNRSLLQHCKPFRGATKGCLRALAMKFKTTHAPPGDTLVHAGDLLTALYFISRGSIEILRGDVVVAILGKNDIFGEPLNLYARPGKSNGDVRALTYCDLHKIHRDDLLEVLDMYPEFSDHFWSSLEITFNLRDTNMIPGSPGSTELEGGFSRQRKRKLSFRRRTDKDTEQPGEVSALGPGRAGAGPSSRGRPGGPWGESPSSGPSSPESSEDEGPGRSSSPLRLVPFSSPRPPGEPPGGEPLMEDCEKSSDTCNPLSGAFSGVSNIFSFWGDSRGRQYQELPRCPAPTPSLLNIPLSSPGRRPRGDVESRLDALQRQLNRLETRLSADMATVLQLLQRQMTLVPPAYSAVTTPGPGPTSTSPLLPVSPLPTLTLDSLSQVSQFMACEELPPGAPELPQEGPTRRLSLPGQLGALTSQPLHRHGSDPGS
row,SMILES,"hERG current change (%, negative = inhibition) at 10uM [%]"
1,Cl.OCCN(Cc1ccccc1)CC(O)COc1ccc2c(c1)OCO2 (stereo not shown),-8.77
2,COc1ccc(C(=O)NCc2cn3ccccc3n2)cc1,-5.56
3,Cc1ccc(S(=O)(=O)Nc2ccc(-c3cn4ccc(C)cc4n3)cc2)cc1,0.0747
4,COCc1ccc(C(=O)N2CCCC(C(=O)c3cc(F)ccc3F)C2)s1 (stereo not shown),-2.39
5,COc1ccc(CNC(=O)c2cc(=O)c3ccccc3o2)cc1,6.31
6,CC(C)OCCCNC(=O)c1ccc(NS(C)(=O)=O)cc1,-7.42
7,O=C(NCc1nnc2c(C(F)(F)F)cc(Cl)cn12)c1ccc2c(c1)OCO2,5.23
8,COc1cc(C(=O)N2CCCCC2)ccc1OCC(=O)Nc1ccc(F)cc1,-18.3
9,COC(=O)/C(C#N)=C/c1c(Oc2cccc(C)c2)nc2ccccn2c1=O,-26.8
10,CCC(NC(=O)c1cncc(Br)c1)c1ccccc1 (stereo not shown),8.8
11,COc1ccc(/C=C/C(=O)NCCC(=O)N2CCCN(C)CC2)cc1,-1.57
12,COCCN(Cc1ccccc1)P(=O)(O)c1ccccc1OCC(=O)O,5.81
13,CC1CCN(CCn2c(=S)[nH]c3cc4c(cc3c2=O)OCO4)CC1,-27.4
14,CCO/C=C/C(O)(CNC(=O)c1ccc(C(C)(C)C)cc1)C(F)(F)F (stereo not shown),-7.57
15,Cc1cc(C)cc(OCCN2CCOCC2)c1,15.5
16,O=C(NCc1ccccc1Cl)C1CCCO1 (stereo not shown),10.6
17,Cc1ccc(NC(=O)CNC(=O)N2CC(=O)Nc3ccccc32)cc1F,1.74
18,CCC(C)NC(=O)c1ccc(CSc2nc3ccncc3n2Cc2ccc(F)cc2)cc1 (stereo not shown),-59
19,COc1ccccc1/C=[N+](\[O-])C1SC(=S)N(C)C1(C)C (stereo not shown),15.1
20,COc1ccc(NC(=O)CN(C)S(=O)(=O)c2ccc3c(c2)CCC(=O)N3)c(OC)c1,-37.1
21,Cc1ccc(C)c(N(C)S(=O)(=O)c2cccc3nsnc23)c1,-18.4
22,Cc1cc(NC(=O)COC(=O)C2CCN(C(=O)c3ccc(Cl)cc3)CC2)no1,-19.2
23,O=C1N/C(=C/c2ccc(N3CCOCC3)cc2)C(=O)N1Cc1ccc(F)cc1,22.1

row,SMILES,"hERG current change (%, negative = inhibition) at 10uM [%]"
1,CCOC(=O)N1CCN(C(=O)CS(=O)(=O)Cc2nc(-c3ccccc3C)oc2C)CC1,-44.4
2,COc1cccc(C(=O)NNC(=O)Cc2ccc(Cl)cc2)c1,10.4
3,O=C(O)/C(=C\c1cccc(F)c1)c1ccc(S(=O)(=O)N2CCCCC2)s1,8.72
4,COc1ccc(-c2cccc(C(=O)N3CCOCC3)c2)cc1,7.94
5,Cn1c(-c2ccc(F)cc2)cnc1SCC(=O)NCc1ccco1,-9.84
6,CC1CCc2nc3ccccc3c(C(=O)OCC(=O)N3CCc4ccccc43)c2C1 (stereo not shown),17.5
7,Fc1ccc(C2=Nn3c(Cc4ccccc4F)nnc3SC2)cc1,15.4
8,Cc1ccc2c(c1)C1CN(C)CCC1N2C(=O)COc1ccc(N(C)S(=O)(=O)c2cccs2)cc1 (stereo not shown),-52.9
9,COc1ccc(OC)c(NC(=O)CN(C)CC(=O)Nc2ccccc2Cl)c1,-12.7
10,OCCN(Cc1ccccc1)c1ncnc2sccc12,4.93
11,CC(=O)c1c(O)ccc2c(-c3ccccc3)cc(=O)oc12,-15.6
12,O=c1[nH]c2ccccc2nc1/C=C(\O)C1CC1,9.7
13,C/C(=N/N=C(/C)c1cccs1)c1cccs1,16.9
14,CCn1cc(CN2CCN(CCC(C)C)C(CCO)C2)c2ccccc21 (stereo not shown),-31.9
15,CCN(CC)CCNC(=O)C1(O)c2cc(Br)ccc2NC(=O)N1c1ccc(Cl)cc1 (stereo not shown),9.81
16,COc1cc(Br)c(CNCCc2ccc3c(c2)OCO3)cc1OC,-32
17,Br.CC1(C)N=C(N)NC(Nc2ccc(Br)cc2)=N1,9.95
18,NS(=O)(=O)c1ccc(NC(=O)CCc2ccccc2)cc1,-5.76
19,COc1ccc(S(=O)(=O)Nc2ccc(O)c(Sc3ncn[nH]3)c2)cc1,7.39
20,Cn1c(=O)n(C)c2cc(NS(=O)(=O)c3cccs3)ccc21,6.18
21,Cc1ccc(S(=O)(=O)C(C#N)c2nc3ccccc3nc2N2CCCC2)cc1 (stereo not shown),-18.3
22,O=[N+]([O-])c1ccccc1-c1ccc(C(=S)N2CCCC2)o1,9.34
23,CCNC(=O)/C(C#N)=C/c1c(N2CC(C)OC(C)C2)nc2ccccn2c1=O (stereo not shown),3.68

row,SMILES,"hERG current change (%, negative = inhibition) at 10uM [%]"
1,CCCN(Cc1ccccc1)C(=S)Nc1ccc(OC(F)F)cc1,-41
2,O=C1CC(=O)N(c2ccccc2)c2ccccc21,11.3
3,CN(C)CCCN(C(=O)c1cc2ccccc2oc1=O)c1nc2c(F)cccc2s1.Cl,-41.1
4,N#Cc1cnc(SCC(=O)N2CCCCC2)nc1N,16.4
5,COc1ccc(C(NC(=O)C2C3C=CC(C3)C2C(=O)O)c2ccccc2)cc1 (stereo not shown),-4.58
6,COc1ccc(C(=O)Nc2ccccc2C(=O)N/N=C/c2ccco2)cc1,-41.3
7,CN(c1ccccc1)c1ccc(/C=C(\CCC(=O)O)c2nc3ccccc3s2)cc1[N+](=O)[O-],44.6
8,CC(C(=O)Nc1ccccc1-c1ccccc1)N1CCOCC1 (stereo not shown),-2
9,COc1ccccc1Nc1nc(N2CCOCC2)nc(N2CCOCC2)n1,8.91
10,Cc1ccc(-n2nc3c(c2NC(=O)c2ccc4c(c2)OCO4)CS(=O)C3)c(C)c1 (stereo not shown),-12.7
11,COc1ccc(C2C(C(C)=O)=C(O)C(=O)N2CCCn2ccnc2)cc1 (stereo not shown),1.92
12,O=C1c2ccccc2C(Nc2ccc3c(c2)OCCO3)N1Cc1ccccc1 (stereo not shown),-18.2
13,O=C(CCN1CCCO1)N1CCCC(N2CCN(c3cccc(C(F)(F)F)c3)CC2)C1 (stereo not shown),-10.2
14,Cn1c(SCc2ccccc2)nc2c1c(=O)[nH]c(=O)n2C,5.9
15,COC(=O)c1ccc(C(=O)OC)c(NC(=O)CSCC(=O)O)c1,18.4
16,CCOC(=O)C1=C(COC(=O)c2cc(OC)c(OC)cc2[N+](=O)[O-])NC(=O)NC1C (stereo not shown),8.98
17,C/C(=N\NC(=O)c1ccc(-c2ccccc2)cc1)c1cccc(N)c1,31.7
18,CC(C(=O)OCC(=O)c1ccccc1)N1C(=O)C2C3CCC(C3)C2C1=O (stereo not shown),10.5
19,CC(=O)Nc1c2c(nn1-c1ccc(Cl)cc1)CSC2,12.7
20,CN(C)S(=O)(=O)c1ccc(Cl)c(NC(=O)CN2CCCC2)c1,11.5
21,CCOC(=O)C(C)c1nc2ccccc2[nH]c1=O (stereo not shown),11
22,CCOC(=O)C1CCCN(CCC(C)c2ccccc2)C1 (stereo not shown),-36.5
23,O=C(C(Cl)c1ccccc1)N1CCCC1 (stereo not shown),1.03

row,SMILES,"hERG current change (%, negative = inhibition) at 10uM [%]"
1,COc1ccc(Br)cc1/C=N/Nc1cccc(C(=O)O)c1,-0.694
2,O=C(CSc1nc2ccccc2[nH]1)Nc1c(F)cccc1F,18.7
3,CCOC(=O)C(CC(=O)O)N1CCCCC1 (stereo not shown),13
4,Cc1cc2occ(CC(=O)N(CC(C)C)c3c(N)n(Cc4ccccc4)c(=O)[nH]c3=O)c2cc1C,-18.4
5,CNC(=S)N1CCC(NC(=O)C(Cc2ccc(F)cc2)NC(C)=O)CC1 (stereo not shown),17.6
6,Cc1oc2c(CN3CCCCC3C)c(O)ccc2c(=O)c1-c1ccccc1 (stereo not shown),-27.6
7,COc1ccc(C/C(N)=N/OC(=O)c2cccs2)cc1,12.8
8,N#Cc1nnn(-c2cc(Cl)cc(Cl)c2)c1N,-1.85
9,O=C1C=C(Nc2cccc3cccnc23)c2ccccc2C1=O,-4.05
10,CCOc1ccccc1NC(=O)C1CCCCN1S(=O)(=O)c1ccc(F)cc1 (stereo not shown),-2.26
11,CCSC(=O)N1CCCCCC1,10.1
12,O=C(COC(=O)c1cc(Cl)ccc1O)c1ccc2c(c1)OCO2,-16.6
13,COc1ccc(C)cc1Nc1n[n+](-c2ccccc2)c(-c2ccc(C(=O)O)cc2)s1.[Cl-],18
14,COc1ccc(CN(C)C(=S)Nc2ccc(Cl)cc2Cl)cc1,10.4
15,O=C(c1cc(Cl)ccc1[N+](=O)[O-])N1CCc2ccccc2C1,-0.00022
16,COc1ccc(OCC(O)CNC(=O)c2ccccc2C(=O)O)cc1 (stereo not shown),3.28
17,COc1cc([C@@H]2CC=C(C(=O)O)[C@H](c3ccccc3F)N2S(=O)(=O)c2ccc(C)cc2)cc(OC)c1OC,26.5
18,O=C1NCCN1Cc1cccc(Cl)c1,-9.9
19,CCC(C)CCN1CCN=C1Nc1ccccc1 (stereo not shown),-1.89
20,COc1cccc(N2CCN(c3ncnc4c3cnn4-c3ccc(C)cc3C)CC2)c1,-0.12
21,CCCC(C)c1nnc(NC(=O)CCS(=O)(=O)c2ccccc2)s1 (stereo not shown),11.5
22,Br.O=C(Cn1c(NCCO)nc2ccccc21)c1cccs1,10.7
